# Data published in the supplement of paper PMC3334620.
# Whole data set: some 33,000 sequences, median “E-score (-0.5 to 0.5)” near -0.035, cut for the highest 2% near 0.35. The list shows a part of the results.
# Molecular target: T1, Pdr3 (UniProt P33200)
# T1 sequence: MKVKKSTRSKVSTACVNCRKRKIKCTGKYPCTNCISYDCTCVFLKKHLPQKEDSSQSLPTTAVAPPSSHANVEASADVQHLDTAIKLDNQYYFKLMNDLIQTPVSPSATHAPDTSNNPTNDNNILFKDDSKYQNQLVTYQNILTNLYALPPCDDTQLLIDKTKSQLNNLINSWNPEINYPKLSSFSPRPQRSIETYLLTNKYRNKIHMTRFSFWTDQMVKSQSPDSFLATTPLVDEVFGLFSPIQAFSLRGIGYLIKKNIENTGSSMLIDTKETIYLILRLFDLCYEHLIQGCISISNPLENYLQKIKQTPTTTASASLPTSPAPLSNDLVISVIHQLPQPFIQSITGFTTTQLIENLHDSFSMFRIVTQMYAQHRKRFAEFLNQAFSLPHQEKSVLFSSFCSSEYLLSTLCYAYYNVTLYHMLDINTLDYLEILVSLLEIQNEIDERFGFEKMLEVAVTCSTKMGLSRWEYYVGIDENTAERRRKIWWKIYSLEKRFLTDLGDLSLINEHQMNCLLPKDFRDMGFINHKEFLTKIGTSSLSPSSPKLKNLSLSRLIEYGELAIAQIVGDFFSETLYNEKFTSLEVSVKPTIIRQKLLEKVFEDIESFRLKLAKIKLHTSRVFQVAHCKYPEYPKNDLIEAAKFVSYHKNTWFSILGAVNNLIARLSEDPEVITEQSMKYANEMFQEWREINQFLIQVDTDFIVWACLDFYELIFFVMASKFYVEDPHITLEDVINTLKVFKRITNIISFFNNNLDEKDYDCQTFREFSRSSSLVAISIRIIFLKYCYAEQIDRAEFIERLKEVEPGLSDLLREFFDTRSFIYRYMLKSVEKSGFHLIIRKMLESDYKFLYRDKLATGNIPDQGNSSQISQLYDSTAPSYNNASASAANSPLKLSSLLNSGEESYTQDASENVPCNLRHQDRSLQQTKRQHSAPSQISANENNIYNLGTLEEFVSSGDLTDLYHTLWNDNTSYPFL
# Experiment: PBM E-score (8-mer binding enrichment) (E-score (-0.5 to 0.5)); higher = stronger / more preferred TF binding; most listed sequences are background and not binding sites
# Conditions: protein concentration: 200 nM; construct: GST-full length
# Method in brief: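 Masliner-normalised scans of fluorescent anti-GST signal were the basis for scoring. That signal came from GST-tagged yeast transcription factors applied at about 100-200 nM to double-stranded universal all-10-mer Agilent arrays on fresh or once-stripped slides. Each ungapped eight-base word, pooled with its reverse complement, received an E-score from the Universal PBM Analysis Suite.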
row,Sequence,PBM E-score
1,ACGGACAG,0.299
2,GATACCAC,0.229
3,ACGAGCTC,0.161
4,TGTCTGAA,-0.0502
5,ACGCGAGT,0.0258
6,GGTCGACA,-0.0158
7,CATAGCAG,-0.233
8,AGATATAG,-0.0232
9,AGGTCTAG,-0.199
10,AAGCAAAC,0.0858
11,AGTTTTCA,0.0217
12,AAGCTTCT,-0.211
13,AGGATGGG,-0.0155
14,ATAGTGTA,-0.148
15,GGGATACC,0.0837
16,CACAAGAA,0.166
17,ATAATTAT,0.123
18,CCTCTACC,-0.104
19,ACCTTTCT,-0.129
20,ATAAATGC,-0.0434
21,CTTGTGCC,-0.11
22,GTGAATAA,-0.0263
23,ATGCTTTG,0.0044
24,AGGACCCT,-0.253
25,CGTAAAAA,-0.193

row,Sequence,PBM E-score
1,AGACACAA,-0.0591
2,CTCACGGA,0.325
3,ATTGGGAC,0.0132
4,ACACTGCC,0.22
5,ACAGAGGG,-0.195
6,ATTGTATC,0.042
7,ATCAACCG,0.0947
8,CCCCAGGC,-0.112
9,AATGGCCG,0.213
10,ATATCGTG,0.0693
11,AAGGAACA,-0.129
12,GAAGTGCC,0.0209
13,CGCACATC,0.136
14,CTCTCGTC,-0.039
15,TATGCATA,-0.314
16,CTCAGAGA,-0.161
17,TGGTTAAA,-0.168
18,ACTTTCCA,-0.0377
19,CATTTAGA,-0.0113
20,GGGATTAC,0.0389
21,GTCATCCA,-0.0723
22,ATTCGGCC,0.328
23,ATAAATTA,0.103
24,GTTGACGA,-0.0899
25,CACCATAC,-0.0169

row,Sequence,PBM E-score
1,ACCAGTCA,-0.0097
2,CAGTGCAA,-0.12
3,GTTTCTAA,-0.134
4,CAAATTTG,0.202
5,TACACCCA,0.134
6,GGCGTTTA,-0.111
7,GTTTACTA,0.00235
8,AAGTTAAC,-0.108
9,CGTATGTC,0.0348
10,ACTATCTC,-0.0777
11,CCAATCCC,0.146
12,CAACTCTC,-0.072
13,GGACATCC,0.22
14,CCTTGCGC,0.0113
15,CCTACACG,-0.334
16,ACAGCAGA,-0.126
17,CCAAAGGG,0.0192
18,ATGTTGAC,0.0989
19,GAGTCTAC,-0.3
20,CAGGGGGA,-0.286
21,GCTTCCCA,-0.22
22,CTATCAAC,0.0811
23,TTAATGAA,-0.0199
24,CTATGCTA,-0.186
25,ATATCGAT,0.104

row,Sequence,PBM E-score
1,AAAGCTTC,-0.0125
2,GAGTGAGC,-0.14
3,GGGAACAA,0.188
4,CGAGGGAA,0.116
5,CTATTGGC,-0.127
6,AGTCCGCG,0.364
7,AAGGTCAG,-0.201
8,CCCACGAC,-0.139
9,TCGGGGAA,0.131
10,CGGGTTAG,0.0824
11,AATTGAGC,-0.135
12,CCAACTCC,0.217
13,ACGAAGAT,-0.145
14,ACACTGTC,-0.0527
15,AAGCACTC,0.098
16,GCGGAGCA,0.304
17,AATTTCAC,-0.137
18,ACTCGTCT,-0.0602
19,ACATCTTA,-0.278
20,CGCATAGC,-0.0553
21,CGTTACAG,-0.179
22,GTTACACA,-0.171
23,AGGGTTCA,-0.243
24,CTATTTTA,-0.141
25,ATCGTTAA,0.00324

row,Sequence,PBM E-score
1,CCAACAAG,-0.165
2,AGTGGTCC,0.166
3,CCTGGTAC,-0.219
4,GTAATGTA,-0.208
5,AAGGCTAG,-0.18
6,CGTTGGCC,0.035
7,ACCCTGTA,-0.14
8,ACTGTACT,-0.303
9,ATAATAGG,-0.0551
10,ATCATGTC,0.101
11,CAGAGGGG,-0.183
12,CTCTATTA,-0.229
13,CGATAAAC,-0.105
14,GTCTCAGA,-0.208
15,AGGCTACC,-0.213
16,ATGTTTTG,-0.0912
17,CAGTACGG,0.0168
18,GCGTCAGC,-0.0588
19,GCTTGCCC,-0.301
20,CGCTATAC,0.0515
21,GTACCGTA,0.029
22,GATTGGGC,0.0826
23,GGAAAACA,0.117
24,CTCTATCA,-0.27
25,CAAACGTA,-0.149

row,Sequence,PBM E-score
1,ACTGACCT,-0.0854
2,ACCTCCGG,0.402
3,AGAATCCA,-0.0157
4,AAGATATT,0.101
5,GTATGTTA,-0.0168
6,GATTAGTA,-0.0538
7,CGACTCGC,-0.176
8,GAGAATTA,-0.0704
9,ATAACGAC,-0.00828
10,ACCAGACC,-0.0204
11,CCAACGAC,-0.23
12,GATTAATA,0.158
13,GGGGAATA,0.121
14,TAAAACAA,-0.174
15,GATTCAGA,0.045
16,CCCTACAG,-0.246
17,ATCTTCAC,-0.0755
18,ACGCTTCA,-0.228
19,AAACCCGT,-0.0551
20,CCGGCTTA,0.356
21,ACGGTGTC,0.0212
22,GACCGCTC,-0.207
23,CTCTCCAG,-0.27
24,ACATATGT,0.0334
25,AGCTCCCC,-0.0962

row,Sequence,PBM E-score
1,CGATCTGA,0.0713
2,ACAGCGGC,0.0103
3,ATTGAGTC,-0.0879
4,GTCTACGA,-0.237
5,AGTTGTCC,0.196
6,CGGAACGA,0.464
7,GTCTAACA,-0.116
8,AAATTGCA,0.108
9,AAACCGCA,-0.0764
10,GACCCTGA,-0.277
11,CATCTATC,-0.059
12,TCGGGACA,0.167
13,AGTAGGTG,-0.151
14,CACGTTCA,-0.166
15,CCCGGTTC,0.259
16,AGGACAAA,0.0303
17,GCGCGATA,0.161
18,TGCAGAAA,0.0226
19,TCCGAGCA,0.324
20,ACCTAGCA,-0.127
21,CCAAAGGC,-0.205
22,AAGATATG,0.104
